From US20240131068A1 (KITE PHARMA, published 2024)

T1: native CD19 expressed on NALM6 tumor cells (UniProt P15391 20-556)
T1 construct: whole, on cells; also called CD19^+ NALM6; NALM6-wt
T1 sequence (looked up): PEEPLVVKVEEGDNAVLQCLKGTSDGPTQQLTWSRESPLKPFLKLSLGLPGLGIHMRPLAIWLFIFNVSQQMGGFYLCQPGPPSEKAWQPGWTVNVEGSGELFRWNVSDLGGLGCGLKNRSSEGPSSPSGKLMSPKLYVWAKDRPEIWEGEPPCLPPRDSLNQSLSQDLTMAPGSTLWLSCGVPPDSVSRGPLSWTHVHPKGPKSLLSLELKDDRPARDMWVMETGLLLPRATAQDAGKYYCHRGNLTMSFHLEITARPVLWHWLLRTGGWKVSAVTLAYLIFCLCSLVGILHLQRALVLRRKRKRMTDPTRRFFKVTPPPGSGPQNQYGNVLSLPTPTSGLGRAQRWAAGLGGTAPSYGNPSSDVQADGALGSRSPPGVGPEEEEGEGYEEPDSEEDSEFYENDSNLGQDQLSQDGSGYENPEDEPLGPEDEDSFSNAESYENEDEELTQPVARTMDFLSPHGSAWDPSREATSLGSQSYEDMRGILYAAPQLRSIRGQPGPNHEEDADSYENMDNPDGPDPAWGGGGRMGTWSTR


Molecular target: T1, native CD19 expressed on NALM6 tumor …
Experiment: screen of scFv clones on CD19^+ NALM6 cells, Nalm6-CD19KO cells as negative control

Binder | binding result
CD19 A4 scFv (P2) (scFv, scFv clone from the display library, screened as a library clone; also called 43; clone 43) scFv: [no letters for about 100 residues]SWTFGQGTKVEIKGGGGSGGGGSGGGGSQVQLVQSGAEVKKPGSSVKVSCKASGGTFSNYYISWVRQAPGQGLEWMGGIIPLFGTTNYAQKFQGRVTITADESTSTAYMELSSLRSEDTAVYYCARGTWYAGDIWGQGTLVTVSS | binds
CD19 E4 scFv (P3) (scFv, scFv clone from the display library, screened as a library clone; also called 44; clone 44) scFv: [no letters for about 100 residues]VTFGQGTKVEIKGGGGSGGGGSGGGGSQVQLVQSGAEVKKPGSSVKVSCKASGGTFSNYAINWVRQAPGQGLEWMGRIVPLLGIANYAQKFQGRVTITADESTSTAYMELSSLRSEDTAVYYCAREHIAYRPTSAGYYYYMDIWGQGTLVTVSS | binds
